# Laboratory results as given in PubChem BioAssay (Tox21).
# Several values for one entry are separate records, joined by “and”; a condition that tells them apart may be missing. Identical values can stand only once. This list was built around the results that the source calls inconclusive (neither active nor inactive); the mix of calls is not that of the screen. For some of these results: Potencies beside an inconclusive call are fits to weak or partial responses and may not hold up. Activity calls are given as the source filed them. Unless noted, calls come from the whole dose curve; as a rule, active = well fitted curve in the direction sought with a large enough effect in the repeat runs; inconclusive = weak or mixed curves; inactive = no such curve, though single readings can be large; an effect the other way counts as inactive or inconclusive.
# Legend:
# [1] = test system: thyroid hormone receptor (rat, GH3 cells); assay: qHTS assay to identify small molecule agonists of the thyroid receptor (TR) signaling pathway (AID 743066; calls by dose curve; note: potency is the fitted concentration of half-maximal effect; for activation: % is set by controls: 0 for no effect and ±100 for the full control effect); details: GH3.TRE-Luc cells, TR agonist luciferase, 24 h; activation: at 83.9 µM (top of the series) unless noted
# [2] = qHTS assay to identify small molecule agonists of the vitamin D receptor (VDR) signaling pathway - cell viability counter screen (AID 743224); note: nearly all actives have a fitted effect of over 50% in size; note: potency is the fitted concentration of half-maximal effect; for activity change, negative = cytotoxicity: % is set by controls: 0 for no effect and ±100 for the full control effect
# How it was run: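 VDR-bla cells, 4 h after plating, exposed to compounds for 16 h at 37C; viability then read in the same wells as CellTiter-Glo luminescence after 30 min at room temperature, following the bla FRET read.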
# [3] = qHTS assay to identify small molecule antagonists of the estrogen related receptor signaling pathway with the pleiotropic PPARgamma coactivator (PGC) from Tox21 10K library - cell viability counter screen (AID 1224840; active = well fitted cell-killing curve with a large enough effect in the repeat runs, not every such curve was filed as active; inconclusive = weak or mixed curves, or effect the other way; inactive = no such curve, though single readings can be large or run the other way; note: nearly all actives have a fitted effect of over 40% in size; note: potency is the fitted concentration of half-maximal effect)
# How it was run: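 PGC/ERR cells (2,000/well) plated 6 h, then compound-treated for 17.5 h at 37 C. Viability measured by CellTiter-Fluor fluorescence after 30 min at 37 C, multiplexed with the pathway assay.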
# [4] = molecular target: Androgen receptor (Homo sapiens) (UniProt P10275); assay: qHTS assay to identify small molecule antagonists of the androgen receptor (AR) signaling pathway (AID 743035; active = well fitted inhibition curve with a large enough effect in the signal ratio in the repeat runs, not every such curve was filed as active; inconclusive = weak or mixed curves, or effect the other way; inactive = no such curve, though single readings can be large or run the other way; the % refers to the signal ratio; note: potency is the fitted concentration of half-maximal effect); details: HEK293 AR-UAS-bla, R1881-stimulated, beta-lactamase FRET, 16 h; activity change, negative = inhibition: at 58.5 µM (top of the series) unless noted
# How it was run: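 HEK293 cells stably carrying UAS-beta-lactamase reporter, 2,000/well, given compounds plus R1881 agonist and incubated 16 h at 37C. LiveBLAzer B/G FRET substrate then added for 2 h at room temperature before fluorescence reading.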
# [5] = qHTS assay to identify small molecule antagonists of the thyroid receptor (TR) signaling pathway (AID 743065); note: % is set by controls: 0 for no effect and ±100 for the full control effect; nearly all actives have a fitted effect of over 55% in size
# How it was run: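 GH3.TRE-Luc rat pituitary cells carrying two TR response elements driving luciferase were plated for 4 h, given compound plus 1 nM T3 (final), and incubated 23.5 h at 37 C. ONE-Glo luminescence measured reporter inhibition; CellTiter-Fluor fluorescence tracked cytotoxicity.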
# [6] = molecular target: Estrogen receptor (Homo sapiens) (UniProt P03372); assay: qHTS assay to identify small molecule agonists of the estrogen receptor alpha (ER-alpha) signaling pathway (AID 743075; calls by dose curve;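 note: HEK293 GripTite cells with ER-alpha and UAS-driven beta-lactamase reporter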; note: potency is the fitted concentration of half-maximal effect; for activation: % is set by controls: 0 for no effect and ±100 for the full control effect); details: HEK293 ER-alpha-UAS-bla, beta-lactamase FRET ratio, 18 h; activation: at 70.1 µM (top of the series) unless noted
# [7] = A CellTox Green Cytotoxicity Assay to monitor cytotoxicity in HepG2 cells - 24 hour (AID 1224878); note: potency is the fitted concentration of half-maximal effect; nearly all actives have a fitted effect of over 45% in size
# How it was run: (§1)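 HepG2 cells, 600/well, preincubated 5 h with CellTox Green dye, then exposed to Tox21 compounds in DMSO at 37 C for up to 40 h. Dead-cell DNA fluorescence read at the indicated time point.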
# [8] = qHTS assay to identify small molecule agonists of the androgen receptor (AR) signaling pathway in the presence of an antagonist - cell viability counter screen (AID 1259379); note: nearly all actives have a fitted effect of over 25% in size; note: potency is the fitted concentration of half-maximal effect;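 for activity change, negative = cytotoxicity: MDA-kb2 human breast cancer cells carrying an MMTV luciferase reporter; % is set by controls: 0 for no effect and ±100 for the full control effect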
# How it was run: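 MDA-kb2 cells (MMTV-luciferase, AR/GR), 3,000/well, 5 h attachment, then 3.0 µM nilutamide (final) and compounds at 15 concentrations. Viability by CellTiter-Fluor fluorescence after 16 h at 37 °C, 0% CO2, in the reporter wells.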
# [9] = molecular target: Acetylcholinesterase (Homo sapiens) (UniProt P22303); assay: Acetylcholinesterase (AChE) small molecule antagonists: colormetric cell-based qHTS assay (AID 1347395; calls by dose curve; note: nearly all actives have a fitted effect of over 30% in size; note: potency is the fitted concentration of half-maximal effect)
# How it was run: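 Neuroblastoma line SH-SY5Y supplied the enzyme; cells were preincubated with compound for 30 min at 37 C and 5% CO2. Acetylthiocholine with DTNB was then added for 90 min at 37 C, and thiocholine was measured by colour.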
# [10] = molecular target: Nuclear receptor subfamily 1 group I member 3 (Homo sapiens) (UniProt Q14994); assay: qHTS assay to identify small molecule antagonists of the constitutive androstane receptor (CAR) signaling pathway (AID 1224838); note: nearly all actives have a fitted effect of over 40% in size; note: potency is the fitted concentration of half-maximal effect
# How it was run: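 HepG2 cells stably carrying hCAR and a CYP2B6-2.2kb luciferase reporter, seeded 4 hrs before compound (15 concentrations). Stimulated with 50 nM CITCO for 24 hr at 37 C. ONE-Glo luminescence read after 30 min at room temperature.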
# [11] = qHTS assay to identify aromatase inhibitors - cell viability counter screen (AID 743084); details: MCF-7 aro ERE viability, CellTiter-Fluor, 24 h; activity change, negative = cytotoxicity: at 70.3 µM (top of the series);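 note: cells stimulated with testosterone during compound exposure; nearly all actives have a fitted effect of over 55% in size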; note: potency is the fitted concentration of half-maximal effect
# [12] = qHTS RealTime-Glo MT Cell Viability Assay in HEK293 cells - 8 hour (AID 1224887); note: nearly all actives have a fitted effect of over 50% in size; note: potency is the fitted concentration of half-maximal effect
# How it was run: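 600 cells/well were plated with the nonlytic NanoLuc/prosubstrate reagent, pre-incubated 5 h, then given 23 nL of compound in DMSO. Incubation at 37 C for 40 h, with luminescence from viable-cell-reduced substrate read repeatedly from 0 h.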
# [13] = qHTS assay to identify small molecule agonists of the estrogen receptor alpha (ER-alpha) signaling pathway in the presence of an antagonist - cell viability counter screen (AID 1259386);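 note: potency is the fitted concentration of half-maximal effect; cells exposed to compounds for 22 h at 37 °C before the viability read; nearly all actives have a fitted effect of over 30% in size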
# How it was run: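 Cell viability in VM7Luc4E2 cells (endogenous full-length ER-alpha) measured by CellTiter-Fluor fluorescence in the same wells as the luciferase screen. Cells pre-cultured 5 days in charcoal-stripped serum, then treated 22 h with compounds at 15 concentrations plus 10.0nM ICI-182,780.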
# [14] = molecular target: Progesterone receptor (Homo sapiens) (UniProt P06401); assay: qHTS assay to identify small molecule agonists of the progesterone receptor (PR) signaling pathway (AID 1346784; calls by dose curve; note: % is set by controls: 0 for no effect and ±100 for the full control effect; nearly all actives have a fitted effect of over 30% in size); details: PR-UAS-bla HEK293T, beta-lactamase FRET ratio, 16 h; activation: at 92.4 µM (top of the series) unless noted
# How it was run: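 Using charcoal-stripped serum (2%) to limit endogenous steroids, PR-UAS-bla HEK 293T cells received compounds for 16 hr at 37C after 6 hr plating; beta-lactamase FRET fluorescence was recorded following 2 hr substrate loading at room temperature.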
# [15] = A CellTox Green Cytotoxicity Assay to monitor cytotoxicity in HepG2 cells - 16 hour (AID 1224876); note: nearly all actives have a fitted effect of over 45% in size; note: potency is the fitted concentration of half-maximal effect
# How it was run: as §1
# [16] = qHTS assay to identify small molecule agonists of the TGF-beta/Smad signaling pathway (AID 1346859; active = well fitted activation curve with a large enough effect in the signal ratio in the repeat runs, not every such curve was filed as active; inconclusive = weak or mixed curves; the % refers to the signal ratio; note: potency is the fitted concentration of half-maximal effect)
# How it was run: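 Stable Smad binding element-beta-lactamase HEK 293T cells; 5 hr compound exposure at 37 C under 5% CO2; 2 hr room-temperature substrate step; fluorescence excited at 405 nm, collected at 460 nm and 530 nm.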
# [17] = molecular target: Peroxisome proliferator-activated receptor delta (Homo sapiens) (UniProt Q03181); assay: qHTS assay to identify small molecule agonists of the peroxisome proliferator-activated receptor delta (PPARd) signaling pathway (AID 743212; calls by dose curve; note: potency is the fitted concentration of half-maximal effect); details: HEK293H PPARd-UAS-bla, beta-lactamase FRET ratio, 17 h; activation: at 62.6 µM (top of the series) unless noted
# How it was run: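 GeneBLAzer PPARd UAS-bla HEK293H cells (beta-lactamase reporter under UAS control), plated and rested 5 h at 37 C, then exposed to compounds in DMSO at 37 C; LiveBLAzer B/G FRET substrate added, 2 h room temperature, fluorescence read.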
# [18] = molecular target: Voltage-gated inwardly rectifying potassium channel KCNH2 (Homo sapiens) (UniProt Q12809); assay: Human Ether-a-go-go-Related Gene (hERG) channel small molecule antagonists: fluorescence cell-based qHTS assay (AID 1671200); note: nearly all actives have a fitted effect of over 50% in size; note: potency is the fitted concentration of half-maximal effect
# How it was run: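 Measured: Tl+ flux via fluorescence (480/540 nm) in hERG-expressing U2OS cells after 1 h dye loading at room temperature.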
# Tags give direction and shape of the fitted curve or compound fluorescence and quenching.
# Sequence of UniProt Q14994 (Q14994 whole entry, looked up): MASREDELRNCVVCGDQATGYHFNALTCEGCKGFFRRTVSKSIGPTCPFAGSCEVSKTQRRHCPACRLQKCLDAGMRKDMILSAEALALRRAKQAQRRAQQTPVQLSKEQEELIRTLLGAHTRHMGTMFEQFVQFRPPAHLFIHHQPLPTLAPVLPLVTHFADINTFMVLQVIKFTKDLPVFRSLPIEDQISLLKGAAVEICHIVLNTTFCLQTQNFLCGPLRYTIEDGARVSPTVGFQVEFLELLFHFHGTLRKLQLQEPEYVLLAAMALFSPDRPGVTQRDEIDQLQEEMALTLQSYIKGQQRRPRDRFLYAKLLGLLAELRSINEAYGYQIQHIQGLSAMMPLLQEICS
# Sequence of UniProt P06401 (P06401 whole entry, looked up): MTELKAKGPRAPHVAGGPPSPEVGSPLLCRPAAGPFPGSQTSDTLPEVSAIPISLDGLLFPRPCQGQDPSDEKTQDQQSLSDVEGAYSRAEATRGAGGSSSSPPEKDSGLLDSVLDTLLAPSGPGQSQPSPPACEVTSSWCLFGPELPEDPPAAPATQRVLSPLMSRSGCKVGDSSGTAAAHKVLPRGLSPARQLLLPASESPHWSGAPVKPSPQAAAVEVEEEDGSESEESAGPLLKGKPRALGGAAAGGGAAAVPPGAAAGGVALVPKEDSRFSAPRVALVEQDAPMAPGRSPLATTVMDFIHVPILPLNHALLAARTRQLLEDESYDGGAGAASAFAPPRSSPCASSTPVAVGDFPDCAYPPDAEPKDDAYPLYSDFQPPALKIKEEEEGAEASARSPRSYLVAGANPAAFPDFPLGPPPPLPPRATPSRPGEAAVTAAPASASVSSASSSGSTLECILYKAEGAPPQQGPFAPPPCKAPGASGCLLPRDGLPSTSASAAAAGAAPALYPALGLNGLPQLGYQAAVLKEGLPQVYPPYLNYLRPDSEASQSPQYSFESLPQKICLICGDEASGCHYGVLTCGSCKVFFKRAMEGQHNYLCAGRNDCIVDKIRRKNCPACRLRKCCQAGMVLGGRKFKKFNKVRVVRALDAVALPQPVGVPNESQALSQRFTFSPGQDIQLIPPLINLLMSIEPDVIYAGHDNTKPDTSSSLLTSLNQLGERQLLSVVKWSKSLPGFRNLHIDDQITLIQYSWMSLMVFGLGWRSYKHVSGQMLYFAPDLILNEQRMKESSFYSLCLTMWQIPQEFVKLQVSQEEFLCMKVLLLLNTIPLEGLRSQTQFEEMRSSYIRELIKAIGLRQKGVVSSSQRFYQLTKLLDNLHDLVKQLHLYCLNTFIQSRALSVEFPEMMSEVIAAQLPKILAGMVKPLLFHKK
# Sequence of UniProt Q12809 (Q12809 whole entry, looked up): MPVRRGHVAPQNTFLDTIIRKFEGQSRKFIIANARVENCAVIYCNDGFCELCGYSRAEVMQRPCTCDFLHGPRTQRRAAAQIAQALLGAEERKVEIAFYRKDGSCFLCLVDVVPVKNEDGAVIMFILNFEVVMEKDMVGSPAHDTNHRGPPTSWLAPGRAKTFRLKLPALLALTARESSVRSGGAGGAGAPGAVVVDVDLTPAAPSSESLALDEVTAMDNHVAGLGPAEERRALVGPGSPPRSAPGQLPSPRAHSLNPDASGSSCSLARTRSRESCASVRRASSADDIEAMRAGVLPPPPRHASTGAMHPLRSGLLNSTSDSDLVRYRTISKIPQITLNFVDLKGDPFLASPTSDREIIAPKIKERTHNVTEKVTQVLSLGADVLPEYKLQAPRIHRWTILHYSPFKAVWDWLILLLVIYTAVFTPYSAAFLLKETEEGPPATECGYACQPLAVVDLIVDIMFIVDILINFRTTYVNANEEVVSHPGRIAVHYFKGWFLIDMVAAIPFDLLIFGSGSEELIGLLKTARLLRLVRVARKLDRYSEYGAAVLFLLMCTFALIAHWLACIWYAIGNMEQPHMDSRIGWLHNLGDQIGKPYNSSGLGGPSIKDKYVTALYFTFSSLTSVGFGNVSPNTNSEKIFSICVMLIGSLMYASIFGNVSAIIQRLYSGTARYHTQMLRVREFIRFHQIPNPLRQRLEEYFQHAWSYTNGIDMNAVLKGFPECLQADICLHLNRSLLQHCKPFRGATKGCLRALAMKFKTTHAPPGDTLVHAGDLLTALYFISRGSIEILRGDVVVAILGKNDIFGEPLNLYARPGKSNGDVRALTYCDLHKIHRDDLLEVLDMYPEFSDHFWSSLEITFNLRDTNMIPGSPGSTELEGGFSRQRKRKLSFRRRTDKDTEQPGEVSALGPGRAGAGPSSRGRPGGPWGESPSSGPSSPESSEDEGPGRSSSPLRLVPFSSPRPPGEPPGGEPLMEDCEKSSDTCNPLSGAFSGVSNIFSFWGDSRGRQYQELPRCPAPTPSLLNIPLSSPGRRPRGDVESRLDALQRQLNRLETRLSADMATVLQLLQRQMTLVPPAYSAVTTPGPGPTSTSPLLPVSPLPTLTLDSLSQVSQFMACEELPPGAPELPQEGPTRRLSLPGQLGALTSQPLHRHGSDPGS
# Sequence of UniProt P03372 (P03372 whole entry, looked up): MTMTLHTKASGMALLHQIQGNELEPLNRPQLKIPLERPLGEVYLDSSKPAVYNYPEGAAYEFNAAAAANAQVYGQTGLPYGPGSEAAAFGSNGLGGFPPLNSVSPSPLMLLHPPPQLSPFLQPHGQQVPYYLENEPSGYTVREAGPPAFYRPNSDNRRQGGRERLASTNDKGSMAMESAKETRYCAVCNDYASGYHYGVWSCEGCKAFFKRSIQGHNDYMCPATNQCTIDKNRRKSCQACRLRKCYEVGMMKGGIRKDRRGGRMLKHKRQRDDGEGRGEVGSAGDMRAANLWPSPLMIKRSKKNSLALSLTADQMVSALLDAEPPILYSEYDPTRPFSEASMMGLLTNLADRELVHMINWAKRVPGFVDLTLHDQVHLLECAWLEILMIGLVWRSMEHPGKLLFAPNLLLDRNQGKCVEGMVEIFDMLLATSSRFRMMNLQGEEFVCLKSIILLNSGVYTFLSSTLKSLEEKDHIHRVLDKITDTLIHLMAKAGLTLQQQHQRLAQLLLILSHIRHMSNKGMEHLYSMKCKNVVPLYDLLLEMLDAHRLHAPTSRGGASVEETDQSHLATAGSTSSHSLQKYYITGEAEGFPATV
# Sequence of UniProt Q03181 (Q03181 whole entry, looked up): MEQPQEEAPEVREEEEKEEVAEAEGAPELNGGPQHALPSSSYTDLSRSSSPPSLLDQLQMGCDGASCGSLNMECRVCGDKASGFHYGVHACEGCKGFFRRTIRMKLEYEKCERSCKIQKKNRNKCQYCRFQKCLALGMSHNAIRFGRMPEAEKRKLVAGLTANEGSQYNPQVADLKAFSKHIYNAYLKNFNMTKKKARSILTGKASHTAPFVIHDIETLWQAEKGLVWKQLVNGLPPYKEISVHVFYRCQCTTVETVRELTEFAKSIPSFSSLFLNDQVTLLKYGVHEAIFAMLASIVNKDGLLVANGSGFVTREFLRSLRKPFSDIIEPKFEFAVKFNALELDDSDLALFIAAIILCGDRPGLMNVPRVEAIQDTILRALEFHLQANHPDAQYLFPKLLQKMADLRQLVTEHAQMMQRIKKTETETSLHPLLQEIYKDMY
# Sequence of UniProt P10275 (P10275 whole entry, looked up): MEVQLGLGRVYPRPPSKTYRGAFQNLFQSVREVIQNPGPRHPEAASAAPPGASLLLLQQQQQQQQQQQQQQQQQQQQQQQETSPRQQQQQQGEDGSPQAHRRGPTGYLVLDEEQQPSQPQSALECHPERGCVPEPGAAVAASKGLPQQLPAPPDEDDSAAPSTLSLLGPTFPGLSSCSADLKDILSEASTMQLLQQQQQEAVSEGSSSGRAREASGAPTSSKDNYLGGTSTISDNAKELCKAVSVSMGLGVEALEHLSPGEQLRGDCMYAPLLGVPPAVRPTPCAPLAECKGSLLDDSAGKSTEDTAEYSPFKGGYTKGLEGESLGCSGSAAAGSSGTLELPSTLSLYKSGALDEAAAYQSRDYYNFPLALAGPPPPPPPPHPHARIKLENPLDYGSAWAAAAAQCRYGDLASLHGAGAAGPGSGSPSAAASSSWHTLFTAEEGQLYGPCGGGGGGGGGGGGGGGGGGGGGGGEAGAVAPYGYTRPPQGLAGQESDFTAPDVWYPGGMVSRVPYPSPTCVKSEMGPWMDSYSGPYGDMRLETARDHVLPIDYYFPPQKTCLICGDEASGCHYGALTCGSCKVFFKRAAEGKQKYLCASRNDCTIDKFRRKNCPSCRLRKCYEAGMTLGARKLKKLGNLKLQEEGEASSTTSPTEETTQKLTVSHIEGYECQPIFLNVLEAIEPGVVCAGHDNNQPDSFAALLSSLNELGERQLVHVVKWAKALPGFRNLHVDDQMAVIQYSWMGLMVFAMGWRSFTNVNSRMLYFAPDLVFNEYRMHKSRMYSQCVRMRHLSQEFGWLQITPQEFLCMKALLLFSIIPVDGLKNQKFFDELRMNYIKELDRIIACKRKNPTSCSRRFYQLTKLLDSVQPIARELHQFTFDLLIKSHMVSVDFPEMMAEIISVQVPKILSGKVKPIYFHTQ
# Sequence of UniProt P22303 (P22303 whole entry, looked up): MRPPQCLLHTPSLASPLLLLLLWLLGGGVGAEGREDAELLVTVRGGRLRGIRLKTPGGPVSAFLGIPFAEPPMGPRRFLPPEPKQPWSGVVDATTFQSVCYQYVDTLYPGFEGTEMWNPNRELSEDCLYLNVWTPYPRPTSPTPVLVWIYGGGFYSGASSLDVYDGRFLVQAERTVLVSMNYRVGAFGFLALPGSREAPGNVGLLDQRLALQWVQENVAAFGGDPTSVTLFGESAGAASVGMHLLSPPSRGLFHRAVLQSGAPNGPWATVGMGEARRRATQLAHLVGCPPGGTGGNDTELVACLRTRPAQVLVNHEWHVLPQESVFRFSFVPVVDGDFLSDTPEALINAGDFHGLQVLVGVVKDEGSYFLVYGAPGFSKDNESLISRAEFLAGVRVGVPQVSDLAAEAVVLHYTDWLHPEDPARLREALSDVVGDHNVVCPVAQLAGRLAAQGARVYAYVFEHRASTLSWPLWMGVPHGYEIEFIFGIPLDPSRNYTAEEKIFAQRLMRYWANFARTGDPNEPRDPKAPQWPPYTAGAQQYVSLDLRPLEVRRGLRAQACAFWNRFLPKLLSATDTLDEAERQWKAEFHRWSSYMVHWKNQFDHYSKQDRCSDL
structure (smiles),measurement,setting,value
CC(C)CCCCCCCOC(=O)c1ccccc1C(=O)OCCCCCCCC(C)C,activation,[1],inconclusive: 6.41% [phenotype inactive]
OCCOCCO,Potency,[2],inactive
CCOP(=S)(Oc1ccc([N+](=O)[O-])cc1)c1ccccc1 (centres undefined),Potency,[3],inactive
OC[C@@H](O)[C@H]1O[C@@H]2O[C@H](C(Cl)(Cl)Cl)O[C@@H]2[C@H]1O,Potency,[2],"inconclusive: 49 µM [cytotoxic, partial curve, poor fit]"
O=CNC(N1CCN(C(NC=O)C(Cl)(Cl)Cl)CC1)C(Cl)(Cl)Cl (centres undefined),Potency,[4],active: 6.16 µM
same,Potency,[5],inactive
same,Potency,[1],inactive
same,Potency,[6],inactive
Cc1cccc2sc3nncn3c12,Potency,[7],"inconclusive: 61.6 µM [activator, partial curve, poor fit]"
same,Potency,[8],inactive
same,Potency,[9],active: 39.9 µM
CCC/C=N/O,Potency,[10],inactive
COc1ccc(-c2ccccc2)cc1NNC(=O)OC(C)C,Potency,[4],active: 51 µM
same,Potency,[11],inactive
same,Potency,[3],inconclusive: 71.5 µM [cytotoxic]
same,Potency,[12],"inconclusive: 51 µM [cytotoxic, partial curve]"
same,Potency,[8],"inconclusive: 56.8 µM [cytotoxic, partial curve]"
same,Potency,[13],"inconclusive: 80.2 µM [cytotoxic, single point]"
same,activation,[14],inconclusive: -15%
Clc1cccc(C(Cl)(Cl)Cl)n1,Potency,[6],inactive
same,Potency,[15],"inconclusive: 54.5 µM [activator, single point] and inconclusive: 54.9 µM [activator, single point]"
same,Potency,[7],"inconclusive: 54.5 µM [activator, single point] and inconclusive: 54.9 µM [activator, single point]"
ClC(Cl)c1ccccc1,activation,[1],inconclusive: 4.58% [phenotype inactive] [at 95.2 µM]
same,Potency,[16],inactive
COP(=O)(CCC(=O)NCO)OC,Potency,[10],"inconclusive: 12.2 µM [inhibitor, partial curve, poor fit]"
CCOP(=S)(OCC)SCSc1ccc(Cl)cc1,Potency,[17],"inconclusive: 0.389 µM [rising, full curve, poor fit]"
N#Cc1ccncc1,Potency,[15],inactive
same,Potency,[9],inactive
same,Potency,[18],inactive
CCOP(=O)(N=C1SCCS1)OCC,Potency,[5],inactive
same,Potency,[9],"inconclusive: 44.8 µM [inhibitor, partial curve]"
COc1cc2c(cc1OC)[C@@]13CCN4CC5=CCO[C@H]6CC(=O)N2[C@H]1[C@H]6[C@H]5C[C@H]43,Potency,[13],"inconclusive: 68.6 µM [cytotoxic, partial curve, poor fit]"
same,Potency,[18],"inconclusive: 27.5 µM [inhibitor, partial curve]"
CNC(=O)Oc1ccccc1C(C)C,Potency,[15],inactive
C[C@@H](Oc1ccc(Cl)cc1Cl)C(=O)O,Potency,[16],"inconclusive: 21.9 µM [rising, full curve]"
CCNc1nc(NC(C)C)nc(OC)n1,Potency,[11],"inconclusive: 61.1 µM [rising, partial curve, poor fit]"
Cc1cccc(C)c1NC1=NCCCS1,Potency,[17],inactive
same,Potency,[16],"inconclusive: 10.7 µM [activator, single point]"
CC1(C)COP(Oc2ccccc2)OC1,Potency,[4],inactive
same,Potency,[1],active: 54.5 µM
same,Potency,[10],inactive
same,activation,[14],inconclusive: 0.198%
same,Potency,[18],inactive
COc1cc(C[C@@H](C)N)c(OC)cc1C,activation,[1],inconclusive: -6.2% [phenotype inactive] [at 95.2 µM]
same,activation,[6],inconclusive: 33.4% [at 79.1 µM]
same,Potency,[2],inactive
N#CC(Br)(Br)C(N)=O,Potency,[1],"inconclusive: 21.7 µM [activator, partial curve]"
same,Potency,[15],"inconclusive: 21.9 µM [activator, single point]"
same,Potency,[7],"inconclusive: 21.9 µM [activator, single point]"
NC1=NC(=O)C(c2ccccc2)O1 (centres undefined),Potency,[17],inactive
same,Potency,[10],"inconclusive: 2.66 µM [inhibitor, partial curve]"
c1ccc2c(c1)CCCC2,Potency,[6],"inconclusive: 50 µM [activator, partial curve]"
Cc1cnc[nH]1,Potency,[3],inactive
same,Potency,[12],inactive
same,Potency,[14],inactive
OCc1ccco1,Potency,[1],"inconclusive: 77 µM [activator, partial curve, poor fit]"
same,Potency,[11],inactive
same,Potency,[16],inactive
N#Cc1ccccn1,Potency,[6],"inconclusive: 51 µM [activator, partial curve]"
C=CC(Cl)CCl (centres undefined),Potency,[15],"inconclusive: 22.4 µM [activator, single point]"
same,Potency,[7],"inconclusive: 22.4 µM [activator, partial curve, poor fit]"
same,Potency,[9],inactive
same,Potency,[18],inactive
CCC(C)c1cc(C(C)(C)C)cc(-n2nc3ccccc3n2)c1O (centres undefined),Potency,[12],inactive
